Experimental data published in the antibiotic and cytotoxicity screens of Wong et al. (2023).
The list shows a part of the results.

How the values were obtained:
HSkMC = human skeletal muscle cells; assay: cytotoxicity call (relative viability < 0.9); settings: 10 µM
HepG2 = assay: cytotoxicity call (relative viability < 0.9); settings: 10 µM
S. aureus RN4220 = assay: growth inhibition call (relative growth <= 0.2); settings: 50 µM

| Compound | cytotoxicity call (HSkMC) | cytotoxicity call (HepG2) | growth inhibition call (S. aureus RN4220) |
| --- | --- | --- | --- |
| CCc1cc(=O)oc2c(C)c(O[C@@H]3O[C@H](CO)[C@@H](O)[C@H](O)[C@H]3O)ccc12 | active | inactive | inactive |
| CCC(C(C)O)n1ncn(-c2ccc(N3CCN(c4ccc(OCC5COC(Cn6cncn6)(c6ccc(F)cc6F)C5)cc4)CC3)cc2)c1=O (stereo not drawn) | inactive | active | inactive |
| COc1ccc(CN(C)C[C@H]2OCCCC[C@@H](C)Oc3ccc(NC(=O)C4CCCCC4)cc3C(=O)N([C@@H](C)CO)C[C@H]2C)cc1 | inactive | inactive | inactive |
| [O-][NH2+]N(CCO)CCO | inactive | inactive | inactive |
| C=C(C)COc1ccc([N+](=O)[O-])cc1 | inactive | inactive | inactive |
| CN(CCO)S(=O)(=O)c1cccc(C(=O)O)c1 | inactive | inactive | inactive |
| COc1ccc(S(=O)(=O)N(C)C[C@H]2Oc3ccc(NS(=O)(=O)c4cn(C)cn4)cc3CC(=O)N([C@@H](C)CO)C[C@H]2C)cc1 | inactive | inactive | inactive |
| Cc1ccc(S(N)(=O)=O)c(C)c1 | inactive | inactive | inactive |
| COc1cccc(NC(=O)N[C@H]2CC[C@H](CC(=O)N3CCOCC3)O[C@@H]2CO)c1 | inactive | inactive | inactive |
| C[C@H](CO)N1C[C@H](C)[C@@H](CN(C)C(=O)CN2CCOCC2)Oc2ncc(/C=C/c3ccccc3)cc2C1=O | inactive | inactive | inactive |
| COc1ccc(COCC23Oc4ccccc4[C@H]([C@H]2CO)n2c(c4ccccc4c(-c4ccccc4)c2=O)N3C)cc1 | inactive | active | inactive |
